Positions count from the first letter of the chain named. This is one part of the list.
B1: chr5:144087797:144087798:-_ENSMUSG00000001844_ENSMUST00000161915|mus_mus|FALSE|FALSE (ssRNA)
RNA: GGGAGUUCUACAGUCCGACGAUCCCUCUGGAGGCACUGCGGGAUUACCCUGGAGCACACCUGUGCUCCUCCAAGGACCACGGCCUUCAAACGCUGGCUUUUUGUGAAGAUGCAGAUCAGGACAACACAAAUCAAUAAGAAGGCCAACAGAGGAUUGAGCAUCA
B2: chr7:89982137:89982138:+_ENSG00000105793_ENST00000417207|hu_hu|FALSE|FALSE (ssRNA)
RNA: GGGAGUUCUACAGUCCGACGAUCGGAUAACCCAUUCCACCGGAUCCUCCCCUGGUGAAGAGUCUUAGCUUAUCGAUGAAAUUUCCAUACUUUCUGAACAACACGCAACUGCAAUGCACCAUGGCUGCAACAGGCCAGGAAACCCAACAGAGGAUUGAGCAUCA
B3: chr6:40197388:40197389:+_ENSMUSG00000057716_ENSMUST00000061740|mus_mus|mus_mus_mus_hu_False|58_58 (ssRNA)
RNA: GGGAGUUCUACAGUCCGACGAUCGAGACACUGGGGUGGAUUUAUUCCACCUCUGUUUGGGUGCUAGCCACUAAGACAGCUAUUUUGGGAUUCAUGGCCUUGAAUAUCAAGAGGGAAAGGAAGAGGAUGGAAAGAGUCAAGAGUCAACAGAGGAUUGAGCAUCA
B4: chrX:160355682:160355683:+_ENSMUSG00000031367_ENSMUST00000069041|mus_hu|FALSE|FALSE (ssRNA)
RNA: GGGAGUUCUACAGUCCGACGAUCGACAUUUUUCUUGGAUGUUUCCUGAACUUCCCCUCCCAAAAGAAACUCAUCCAAAAUAAAAUAAGCCUUCUCAAAAUUAAAGAUGAUAUCUAGUUCACAGACACUGCCGAAAUACUUGUCCAACAGAGGAUUGAGCAUCA
B5: chr2:158593201:158593202:-_ENSG00000115170_ENST00000434821|hu_hu|FALSE|FALSE (ssRNA)
RNA: GGGAGUUCUACAGUCCGACGAUCUGAAAUCUUUGCUUCUAAAUCAGUAAUAUAUUCGGUGGUGUCACGUGGGUAAUGGCUAAAUACGUUCUGCAUAUGAACUGAAAAAAAGUUACAGUCUACACACAUACAAAUGUGAAGCACCAACAGAGGAUUGAGCAUCA
B6: chr1:154246031:154246032:+_ENSG00000143575_ENST00000328703|hu_hu|FALSE|FALSE (ssRNA)
RNA: GGGAGUUCUACAGUCCGACGAUCACCUGGAAGUUCAGGAGGAUGGGAAGGCAAGGUCCAGGCCCCCAUAUCGCUGAAGAUGCUAUUGAAAUCUCGUACUAGGUCAUCAAAGCCGAAGUUAUCGUGGAAACGUAUCCCUCCUCCCAACAGAGGAUUGAGCAUCA
B7: chr5:128440902:128440903:+_ENSG00000066583_ENST00000173527|hu_mus|hu_hu_hu_mus_True|58_78 (ssRNA)
RNA: GGGAGUUCUACAGUCCGACGAUCUUGAACGGUGCUGCCAAGUCCUUUGGGGUAUUGUUCUGUUACAAUAACUGGAAUUCCUAAAAUCCGAGCUCCUUGCAACAGUCUCUGUCCCACACUAAUGAUGUCCCCAAAGUAUUUGAUCAACAGAGGAUUGAGCAUCA
B8: 54241237_54241357_4600_CDS_ENSMUSG00000061603_ENSMUST00000095737|mouse|control|control (ssRNA)
RNA: GGGAGUUCUACAGUCCGACGAUCUUCAUGGAGGGGCGCGUCUGGUUGUGACUCAGAAGUCUGAUGUUUAGGUUUGCAGGACUUUUUAUCAAAAUAGAAACCACGAAGAAGGGGAUCCUCCAAAUGUGCCUUCUCACUCUGCGGCAACAGAGGAUUGAGCAUCA
B9: chr3:10015032:10015033:+_ENSMUSG00000027533_ENSMUST00000029046|mus_mus|mus_mus_mus_hu_True|88_88 (ssRNA)
RNA: GGGAGUUCUACAGUCCGACGAUCGUUUUUACCAUCACAAGUGAUGAUACAGUCUGGCUUGGCCAUUGCGCCCAUUUUUCGCAAAGCUAUUCCCACUCCUAGCUCCUUCAUGUAUUCAUCAAAGCCUUUGCUGUCCACCAGGCGCAACAGAGGAUUGAGCAUCA
B10: 65867278_65867398_8407_3pUTR_ENSMUSG00000044647_ENSMUST00000122912|mouse|control|control (ssRNA)
RNA: GGGAGUUCUACAGUCCGACGAUCCACUCCCCUAACAUGACAGUAAUCUUAAAAAGAUAAAUAUAGAUGAAUAAAAACUGCCUAGUGCCUUUAUUUUCCCAAAGCAGGUUACAUUACAAAGUAUCCGAGUACCUACAUUCUCCUCAACAGAGGAUUGAGCAUCA
B11: chr3:10015032:10015033:+_ENSMUSG00000027533_ENSMUST00000029046|mus_mus|mus_mus_mus_hu_True|28_108 (ssRNA)
RNA: B9 RNA with U27G, A30G, G51A, U114C
B12: chrX:153986339:153986340:-_ENSMUSG00000046873_ENSMUST00000058098|mus_mus|FALSE|FALSE (ssRNA)
RNA: GGGAGUUCUACAGUCCGACGAUCCACCAGGGACAUAAGACAUUCCAAGCUUUACUAUGUCAACAUAUAUUUACAGUAACUAUUCGACAAUCCUUUUUACAGCUUAAAUAGAAGCAUGCUUUUCUAGCCAUAAAUAACACUAAUCAACAGAGGAUUGAGCAUCA
B13: 246829073_246829193_2373_3pUTR_ENSG00000162852_ENST00000366513|human|control|control (ssRNA)
RNA: GGGAGUUCUACAGUCCGACGAUCUCCAGUGCUUCAGUUCUGCCACUCCCUGAAGUAACUUAGUGUAAUAGAAGUCCAUGUUGUCUGCAAAGUCAGUACAAACAGGUGACUCCAUGUCACCGAAAGUGCAGUAUAAUGCAGUUCCAACAGAGGAUUGAGCAUCA
B14: chr2:165877891:165877892:+_ENSMUSG00000027678_ENSMUST00000088095|mus_mus|FALSE|FALSE (ssRNA)
RNA: GGGAGUUCUACAGUCCGACGAUCGAACCUCUGGAUACAUCUUCGGAUUAUGUCUUCAAAGCCAGGCCUCAUGGAAGAUCUAAGUGAGUUUGUAUCUAUAUUGACAACCUUUCCGGAAAGGUCAUGUCUGGUAAUAAAGCUCUCCAACAGAGGAUUGAGCAUCA
B15: chr18:25636641:25636642:-_ENSMUSG00000024268_ENSMUST00000025117|mus_mus|FALSE|FALSE (ssRNA)
RNA: GGGAGUUCUACAGUCCGACGAUCUCAUUUACCAAAGAUAAAUAUCGUGCUUUCAUUAAAUAGUUUUCCUUGUUUUUUCUCUAUCAUUACAAUUAAAAGUCCUACAAAAUAUGCAAAUUUAUUUACAGAAAAACAGAGCCAGCACAACAGAGGAUUGAGCAUCA
B16: chr6:118368571:118368572:-_ENSMUSG00000030138_ENSMUST00000032237|mus_mus|motif|central (ssRNA)
RNA: GGGAGUUCUACAGUCCGACGAUCGUCUUGCAGGUGCCGUUUCUUUUUCUUCUCAGCUUUAGGCCCACUGUGCUUCUUCCGGUGUUUCUUGUGGUCCUUGGUCUCCAUGGUGGCUAUUUAUCUACUACAAAUAAGUCUUACCUUCAACAGAGGAUUGAGCAUCA
B17: chr11:104189435:104189436:+_ENSMUSG00000018411_ENSMUST00000106992|mus_mus|motif|central (ssRNA)
RNA: GGGAGUUCUACAGUCCGACGAUCGCCCUGGGAGCCUGAUCACAAACCCUGCUUGGCCAAGGAAGCAGACACUUCAUCGGCGGGUGUGGCAAGCUGUGGUGAGUCCACCAUGUCGAUGCUGCCCGUGGAAGACACAUUGCUGAGCAACAGAGGAUUGAGCAUCA
B18: chr6:38652254:38652255:-_ENSG00000124767_ENST00000373365|hu_hu|hu_hu_hu_mus_False|1_8 (ssRNA)
RNA: GGGAGUUCUACAGUCCGACGAUCCGAGAACUUCAUAGCAGGGAAGUCAAGCUUCUGCAGGAGGGUCAGUCCAAGAACCCUCGUAUAAAAAUCCAGGGACUUCUUAGGAUCCUUAAUUCUUAGCAUCGUCUGCUGCAAUAGAAACAACAGAGGAUUGAGCAUCA
B19: chr14:89305849:89305850:+_ENSG00000165533_ENST00000346301|hu_hu|motif|central (ssRNA)
RNA: GGGAGUUCUACAGUCCGACGAUCAGCAUUUUCAUCCAGCAUCAUUUCUGCAAUUCCUUCCUGAUCUACAUCAAUUUCAUCGGUGUAUACCAUUUCUGUUAGCGCUCUUGCUUUUAAGAUCCAAGCUGCCUGGUCAUAAGGGGACAACAGAGGAUUGAGCAUCA
B20: chr1:160275524:160275525:-_ENSG00000122218_ENST00000241704|hu_hu|FALSE|FALSE (ssRNA)
RNA: GGGAGUUCUACAGUCCGACGAUCACAUAAAGCAUCCAGUUUGCGGUUACAGAUCACAAUGGCGUGUUUGGCUAGUAGUGCUACAUGUGACAUGUCUGCUGACCAGAUAACGUAUUUCACUUUAGAAAUCUUCACAGAUGCCAGCAACAGAGGAUUGAGCAUCA
B21: chr4:148551591:148551592:-_ENSMUSG00000063077_ENSMUST00000060537|mus_hu|mus_mus_mus_hu_False|1_1 (ssRNA)
RNA: GGGAGUUCUACAGUCCGACGAUCACCUGACAAAAUUAAAUAUCCCUGUAAAUUAGACAAUAAGCAGCAGGCAACAAAGUCUUUGCUUUGGAAUAUGUGCCAGGAAAAGUCAUCUUGUUUUUAGAUCUCAAGAGACACAACCAUCAACAGAGGAUUGAGCAUCA
B22: chr1:172123744:172123745:-_ENSMUSG00000026667_ENSMUST00000150821|mus_hu|FALSE|FALSE (ssRNA)
RNA: GGGAGUUCUACAGUCCGACGAUCAAACGCAUUGUUCACACUUUUUAGGAAUAUAGGAAAGUGGAAAAUAAAAGUUCUUUGCUAUUCAGCAGGAAAGAGUUUAAAAGACUUGAAUGGAAAUCAGAAAUUUAGGGAUUUGAGAAACAACAGAGGAUUGAGCAUCA

Each binder was assayed against T1, UNK ZnF1-3 (human, UniProt Q9C0B0 31-174) (assay: nsRBNS (natural sequence RNA bind-n-seq); RBNS binding buffer (assumed for nsRBNS): 25 mM Tris pH 7.5, 150 mM KCl, 3 mM MgCl2, 0.01% Triton X-100, 500 ug/ml BSA, 20 U/ml SUPERase-In, 4 C; UNK is unkempt and MSI1 is Musashi-1; names of the RNAs are library labels; protein concentration not given here; high values mean tight binding).
T1 sequence: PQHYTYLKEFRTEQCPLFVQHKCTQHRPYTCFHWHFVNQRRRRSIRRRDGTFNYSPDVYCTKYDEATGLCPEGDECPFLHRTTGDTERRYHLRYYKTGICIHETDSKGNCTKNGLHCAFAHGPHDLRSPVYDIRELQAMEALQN

Binder	binding signal
B1	1.27 enrichment R
B2	1.05 enrichment R
B3	1.53 enrichment R
B4	1.61 enrichment R
B5	1.15 enrichment R
B6	1.33 enrichment R
B7	0.759 enrichment R
B8	0.947 enrichment R
B9	0.638 enrichment R
B10	2.74 enrichment R
B11	0.785 enrichment R
B12	1.2 enrichment R
B13	0.867 enrichment R
B14	0.796 enrichment R
B15	1.15 enrichment R
B16	0.282 enrichment R
B17	0.915 enrichment R
B18	0.785 enrichment R
B19	0.982 enrichment R
B20	0.823 enrichment R
B21	1.51 enrichment R
B22	1.86 enrichment R

Source: publication PMC12136788
